Reference: the supplement of paper PMC12230231
± gives the standard deviation of the averaged measurements. Restriction of a single-cycle SIVsab GFP reporter by TRIM5α v1-loop variants in CRFK cells. Human variants: read share among cells still uninfected after two challenges over input, higher = gained restriction. Rhesus variants: share among infected cells over input, higher = lost restriction. Reporter dose not given per row. No active / inactive call per row; the paper calls a change when both replicates lie above its controls (mean + 2 SD of stop or wild-type variants, or the top frameshift score). Residues outside the varied loop are taken from Swiss-Prot. The paper reads the human single-substitution scores as noise; they and the rhesus combinations repeat poorly (rank correlation 0.3 to 0.4), indel scores repeat only for the top variants, rhesus substitutions well (0.9).

These sequences were tested on SIVsab (simian immunodeficiency virus of sabaeus monkeys), single-cycle GFP reporter, in CRFK cells (assay: enrichment among uninfected cells over input (fold); higher = stronger restriction). Conditions: library: human / rhesus combinations.
Description: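 Pools of CRFK cells expressing variants of the TRIM5α v1 loop were challenged with the single-cycle reporter, sorted by GFP and sequenced; mean of two replicates.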
“MASGILVNVKEEVTCPICLELLTQPLSLDCGHSFCQACLTANHKKSMLDKGESSCPVCRISYQPENIRPNRHVANIVEKLREVKLSPEGQKVDHCARHGEKLLLFCQEDGKVICWLCERSQEHRGHHTFLTEEVAREYQVKLQAALEMLRQKQQEAEELEADIREEKASWKTQIQYDKTNVLADFEQLRDILDWEESNELQNLEKEEEDILKSLTNSETEMVQQTQSLRELISDLEHRLQGSVMELLQGVDGVIKRTENVTLKKPETFPKNQRRVFRAPDLKGMLEVFRELTDVRRYWVDVTVAPNNISCAVISEDKRQVSSPKPQIIYQAPGTRYTFPTFTNFNYCTGILGSQSITSGKHYWEVDVSKKTAWILGVCAGFQPDAMCNIEKNENYQPKYGYWVIGLEEGVKCSAFQDSSFHTPSVPFIVPLSVIICPDRVGVFLDYEACTVSFFNITNHGFLIYKFSHCSFSQPVFPYLNPRKCGVPMTLCSPSS [human TRIM5α, 330-340 = QAPGTRYTFPTFT]” gave an enrichment of 0.0455 ± 0.061.
Sequence “MASGILVNVKEEVTCPICLELLTQPLSLDCGHSFCQACLTANHKKSMLDKGESSCPVCRISYQPENIRPNRHVANIVEKLREVKLSPEGQKVDHCARHGEKLLLFCQEDGKVICWLCERSQEHRGHHTFLTEEVAREYQVKLQAALEMLRQKQQEAEELEADIREEKASWKTQIQYDKTNVLADFEQLRDILDWEESNELQNLEKEEEDILKSLTNSETEMVQQTQSLRELISDLEHRLQGSVMELLQGVDGVIKRTENVTLKKPETFPKNQRRVFRAPDLKGMLEVFRELTDVRRYWVDVTVAPNNISCAVISEDKRQVSSPKPQIIYQAPGTRYQSFVNFNYCTGILGSQSITSGKHYWEVDVSKKTAWILGVCAGFQPDAMCNIEKNENYQPKYGYWVIGLEEGVKCSAFQDSSFHTPSVPFIVPLSVIICPDRVGVFLDYEACTVSFFNITNHGFLIYKFSHCSFSQPVFPYLNPRKCGVPMTLCSPSS [human TRIM5α, 330-340 = QAPGTRYQSFV]” has an enrichment of 0.258 ± 0.35.
With “MASGILVNVKEEVTCPICLELLTQPLSLDCGHSFCQACLTANHKKSMLDKGESSCPVCRISYQPENIRPNRHVANIVEKLREVKLSPEGQKVDHCARHGEKLLLFCQEDGKVICWLCERSQEHRGHHTFLTEEVAREYQVKLQAALEMLRQKQQEAEELEADIREEKASWKTQIQYDKTNVLADFEQLRDILDWEESNELQNLEKEEEDILKSLTNSETEMVQQTQSLRELISDLEHRLQGSVMELLQGVDGVIKRTENVTLKKPETFPKNQRRVFRAPDLKGMLEVFRELTDVRRYWVDVTVAPNNISCAVISEDKRQVSSPKPQIIYQARGTRFTFPTLVNFNYCTGILGSQSITSGKHYWEVDVSKKTAWILGVCAGFQPDAMCNIEKNENYQPKYGYWVIGLEEGVKCSAFQDSSFHTPSVPFIVPLSVIICPDRVGVFLDYEACTVSFFNITNHGFLIYKFSHCSFSQPVFPYLNPRKCGVPMTLCSPSS [human TRIM5α, 330-340 = QARGTRFTFPTLV]” the enrichment was 0.354 ± 0.15.
“MASGILVNVKEEVTCPICLELLTQPLSLDCGHSFCQACLTANHKKSMLDKGESSCPVCRISYQPENIRPNRHVANIVEKLREVKLSPEGQKVDHCARHGEKLLLFCQEDGKVICWLCERSQEHRGHHTFLTEEVAREYQVKLQAALEMLRQKQQEAEELEADIREEKASWKTQIQYDKTNVLADFEQLRDILDWEESNELQNLEKEEEDILKSLTNSETEMVQQTQSLRELISDLEHRLQGSVMELLQGVDGVIKRTENVTLKKPETFPKNQRRVFRAPDLKGMLEVFRELTDVRRYWVDVTVAPNNISCAVISEDKRQVSSPKPQIIYQAPGTLYTFPSLVNFNYCTGILGSQSITSGKHYWEVDVSKKTAWILGVCAGFQPDAMCNIEKNENYQPKYGYWVIGLEEGVKCSAFQDSSFHTPSVPFIVPLSVIICPDRVGVFLDYEACTVSFFNITNHGFLIYKFSHCSFSQPVFPYLNPRKCGVPMTLCSPSS [human TRIM5α, 330-340 = QAPGTLYTFPSLV]” was tested, and the enrichment was 0.337 ± 0.13.

Same assay, conditions: library: insertions and deletions
“MASGILVNVKEEVTCPICLELLTQPLSLDCGHSFCQACLTANHKKSMLDKGESSCPVCRISYQPENIRPNRHVANIVEKLREVKLSPEGQKVDHCARHGEKLLLFCQEDGKVICWLCERSQEHRGHHTFLTEEVAREYQVKLQAALEMLRQKQQEAEELEADIREEKASWKTQIQYDKTNVLADFEQLRDILDWEESNELQNLEKEEEDILKSLTNSETEMVQQTQSLRELISDLEHRLQGSVMELLQGVDGVIKRTENVTLKKPETFPKNQRRVFRAPDLKGMLEVFRELTDVRRYWVDVTVAPNNISCAVISEDKRQVSSPKPQIIYGARGVNFNYCTGILGSQSITSGKHYWEVDVSKKTAWILGVCAGFQPDAMCNIEKNENYQPKYGYWVIGLEEGVKCSAFQDSSFHTPSVPFIVPLSVIICPDRVGVFLDYEACTVSFFNITNHGFLIYKFSHCSFSQPVFPYLNPRKCGVPMTLCSPSS [human TRIM5α, 6-codon deletion at 334]” gave an enrichment of 0.938 ± 0.38.
In the case of “MASGILVNVKEEVTCPICLELLTQPLSLDCGHSFCQACLTANHKKSMLDKGESSCPVCRISYQPENIRPNRHVANIVEKLREVKLSPEGQKVDHCARHGEKLLLFCQEDGKVICWLCERSQEHRGHHTFLTEEVAREYQVKLQAALEMLRQKQQEAEELEADIREEKASWKTQIQYDKTNVLADFEQLRDILDWEESNELQNLEKEEEDILKSLTNSETEMVQQTQSLRELISDLEHRLQGSVMELLQGVDGVIKRTENVTLKKPETFPKNQRRVFRAPDLKGMLEVFRELTDVRRYWVDVTVAPNNISCAVISEDKRQVSSPKYGARGTRYQTFVNFNYCTGILGSQSITSGKHYWEVDVSKKTAWILGVCAGFQPDAMCNIEKNENYQPKYGYWVIGLEEGVKCSAFQDSSFHTPSVPFIVPLSVIICPDRVGVFLDYEACTVSFFNITNHGFLIYKFSHCSFSQPVFPYLNPRKCGVPMTLCSPSS [human TRIM5α, 4-codon deletion at 325]”, the enrichment is reported as 0.705 ± 0.16.
Sequence “MASGILVNVKEEVTCPICLELLTQPLSLDCGHSFCQACLTANHKKSMLDKGESSCPVCRISYQPENIRPNRHVANIVEKLREVKLSPEGQKVDHCARHGEKLLLFCQEDGKVICWLCERSQEHRGHHTFLTEEVAREYQVKLQAALEMLRQKQQEAEELEADIREEKASWKTQIQYDKTNVLADFEQLRDILDWEESNELQNLEKEEEDILKSLTNSETEMVQQTQSLRELISDLEHRLQGSVMELLQGVDGVIKRTENVTLKKPETFPKNQRRVFRAPDLKGMLEVFRELTDVRRYWVDVTVAPNNISCAVISEDKRQVSSPKPQIIYGARGTRYQTFVNFNSITSGKHYWEVDVSKKTAWILGVCAGFQPDAMCNIEKNENYQPKYGYWVIGLEEGVKCSAFQDSSFHTPSVPFIVPLSVIICPDRVGVFLDYEACTVSFFNITNHGFLIYKFSHCSFSQPVFPYLNPRKCGVPMTLCSPSS [human TRIM5α, 9-codon deletion at 344]” has an enrichment of 2.11 ± 2.1.
For “MASGILVNVKEEVTCPICLELLTQPLSLDCGHSFCQACLTANHKKSMLDKGESSCPVCRISYQPENIRPNRHVANIVEKLREVKLSPEGQKVDHCARHGEKLLLFCQEDGKVICWLCERSQEHRGHHTFLTEEVAREYQVKLQAALEMLRQKQQEAEELEADIREEKASWKTQIQYDKTNVLADFEQLRDILDWEESNELQNLEKEEEDILKSLTNSETEMVQQTQSLRELISDLEHRLQGSVMELLQGVDGVIKRTENVTLKKPETFPKNQRRVFRAPDLKGMLEVFRELTDVRRYWVDVTVAPNNISCAVISEDKRQVSSPKQIIYGARGTRYQTFVNFNYCTGILGSQSITSGKHYWEVDVSKKTAWILGVCAGFQPDAMCNIEKNENYQPKYGYWVIGLEEGVKCSAFQDSSFHTPSVPFIVPLSVIICPDRVGVFLDYEACTVSFFNITNHGFLIYKFSHCSFSQPVFPYLNPRKCGVPMTLCSPSS [human TRIM5α, 1-codon deletion at 325]”, the enrichment was 0.653 ± 0.57.
In the case of “MASGILVNVKEEVTCPICLELLTQPLSLDCGHSFCQACLTANHKKSMLDKGESSCPVCRISYQPENIRPNRHVANIVEKLREVKLSPEGQKVDHCARHGEKLLLFCQEDGKVICWLCERSQEHRGHHTFLTEEVAREYQVKLQAALEMLRQKQQEAEELEADIREEKASWKTQIQYDKTNVLADFEQLRDILDWEESNELQNLEKEEEDILKSLTNSETEMVQQTQSLRELISDLEHRLQGSVMELLQGVDGVIKRTENVTLKKPETFPKNQRRVFRAPDLKGMLEVFRELTDVRRYWVDVTVAPNNISCAVISEDKRQVSSPKPQIIYGARGTRGTRYQTFVNFNYCTGILGSQSITSGKHYWEVDVSKKTAWILGVCAGFQPDAMCNIEKNENYQPKYGYWVIGLEEGVKCSAFQDSSFHTPSVPFIVPLSVIICPDRVGVFLDYEACTVSFFNITNHGFLIYKFSHCSFSQPVFPYLNPRKCGVPMTLCSPSS [human TRIM5α, 3-codon duplication at 332]”, the enrichment is reported as 0.957 ± 0.058.
For “MASGILVNVKEEVTCPICLELLTQPLSLDCGHSFCQACLTANHKKSMLDKGESSCPVCRISYQPENIRPNRHVANIVEKLREVKLSPEGQKVDHCARHGEKLLLFCQEDGKVICWLCERSQEHRGHHTFLTEEVAREYQVKLQAALEMLRQKQQEAEELEADIREEKASWKTQIQYDKTNVLADFEQLRDILDWEESNELQNLEKEEEDILKSLTNSETEMVQQTQSLRELISDLEHRLQGSVMELLQGVDGVIKRTENVTLKKPETFPKNQRRVFRAPDLKGMLEVFRELTDVRRYWVDVTVAPNNISCAVISEDKRQVSSPKPQIIGTRYQTFVNFNYCTGILGSQSITSGKHYWEVDVSKKTAWILGVCAGFQPDAMCNIEKNENYQPKYGYWVIGLEEGVKCSAFQDSSFHTPSVPFIVPLSVIICPDRVGVFLDYEACTVSFFNITNHGFLIYKFSHCSFSQPVFPYLNPRKCGVPMTLCSPSS [human TRIM5α, 4-codon deletion at 329]”, the enrichment was 0.42172 ± 0.00014.
In the case of “MASGILVNVKEEVTCPICLELLTQPLSLDCGHSFCQACLTANHKKSMLDKGESSCPVCRISYQPENIRPNRHVANIVEKLREVKLSPEGQKVDHCARHGEKLLLFCQEDGKVICWLCERSQEHRGHHTFLTEEVAREYQVKLQAALEMLRQKQQEAEELEADIREEKASWKTQIQYDKTNVLADFEQLRDILDWEESNELQNLEKEEEDILKSLTNSETEMVQQTQSLRELISDLEHRLQGSVMELLQGVDGVIKRTENVTLKKPETFPKNQRRVFRAPDLKGMLEVFRELTDVRRYWVDVTVAPNNISCAVISEDKRQVSSPKPQIIYGARGYGARGTRYQTFVNFNYCTGILGSQSITSGKHYWEVDVSKKTAWILGVCAGFQPDAMCNIEKNENYQPKYGYWVIGLEEGVKCSAFQDSSFHTPSVPFIVPLSVIICPDRVGVFLDYEACTVSFFNITNHGFLIYKFSHCSFSQPVFPYLNPRKCGVPMTLCSPSS [human TRIM5α, 5-codon duplication at 329]”, the enrichment is reported as 0.231 ± 0.21.
“MASGILVNVKEEVTCPICLELLTQPLSLDCGHSFCQACLTANHKKSMLDKGESSCPVCRISYQPENIRPNRHVANIVEKLREVKLSPEGQKVDHCARHGEKLLLFCQEDGKVICWLCERSQEHRGHHTFLTEEVAREYQVKLQAALEMLRQKQQEAEELEADIREEKASWKTQIQYDKTNVLADFEQLRDILDWEESNELQNLEKEEEDILKSLTNSETEMVQQTQSLRELISDLEHRLQGSVMELLQGVDGVIKRTENVTLKKPETFPKNQRRVFRAPDLKGMLEVFRELTDVRRYWVDVTVAPNNISCAVISEDKRQVSSPKPQIIYTRYQTFVNFNYCTGILGSQSITSGKHYWEVDVSKKTAWILGVCAGFQPDAMCNIEKNENYQPKYGYWVIGLEEGVKCSAFQDSSFHTPSVPFIVPLSVIICPDRVGVFLDYEACTVSFFNITNHGFLIYKFSHCSFSQPVFPYLNPRKCGVPMTLCSPSS [human TRIM5α, 4-codon deletion at 330]” was tested, and the enrichment was 0.584 ± 0.052.
